Source: PubChem BioAssay AID1508624 (National Center for Advancing Translational Sciences (NCATS), 2021)
About 120 (0.25%) of roughly 48,000 compounds were called active. This list was built around the results that the source calls inconclusive (neither active nor inactive); the mix of calls is not that of the screen. Calls come from the whole dose curve; as a rule, active = well fitted activation curve with a large enough effect; inconclusive = small, poorly fitted or top-dose-only effect, or another doubt; inactive = no such curve, though single readings can be large or run the other way. Potencies beside an inconclusive call are fits to weak or partial responses and may not hold up.

test: Primary qHTS for Identification of Small Molecule Activators of Huntingtin-Antisense Promoter Activity; details: HEK293 HTT-AS promoter firefly luciferase reporter, 24 h; activity change, positive = activation: at 57.5 µM (top of the series), percent change from vehicle, -100% = no light unless noted; note: nearly all actives have a fitted effect of over 55% in size
Procedure, shortened: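 Firefly luciferase signal from promoter-reporter HEK293 cells was scaled between vehicle (0%) and zero RLU (-100%). Compounds were tested at final concentrations of up to 57.5 uM over 24 h at 37 degrees C. PTC124 at 50 uM final served as control inhibitor.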
Potency is the fitted concentration of half-maximal effect; tags give direction and shape of the fitted curve.

Potency, inactive:
CCN(C(=O)CSc1nc(-c2ccccc2)no1)c1cccc(C)c1
COc1ccc(C)cc1-n1c(-c2ccc(C)cc2)cc2c1CC(C)(C)CC2=O
CCOc1ccc2oc(=O)cc(CN3CCN(c4ccccc4)CC3)c2c1
CCN1CCC(N(Cc2ccc(F)cc2)C(=O)Nc2cc(Cl)ccc2C(=O)OC)CC1
Cc1ccc(-n2nc3c(N4CCCC(C(=O)NCCc5ccccc5)C4)nnc(C)c3c2C)cc1 (configuration not stated)
CCc1ccccc1NS(=O)(=O)c1ccc(-c2coc(C)n2)cc1
CCCOCc1cc(CN2CCN(c3cccc(Cl)c3)CC2)c(O)c2ncccc12
CCN(CC)CCNC(=O)c1ccc2c(c1)NC(=O)C(CS(=O)(=O)Cc1ccc(F)cc1Cl)N2 (configuration not stated)
Nc1ncnc2ccccc12
Cn1ccc2c(OCC(=O)NCc3ccccc3Cl)cccc2c1=O
COc1cc2c(cc1OC)C(COc1ccc3c(C)cc(=O)oc3c1)N(C(=O)c1ccc(C)c(C)c1)CC2 (configuration not stated)
CCOc1ccc(OCC)c(Nc2nc3ccccc3c3nnc(C)n23)c1
CCCCC(C)(C)[C@H](O)C=C[C@H]1[C@H](O)CC(=O)[C@H]1CC=CCCCC(=O)O
CC[C@H](C=C[C@@H](C)[C@H]1CC[C@H]2[C@@H]3CC=C4C[C@@H](O)CC[C@]4(C)[C@@H]3CC[C@]12C)C(C)C
Cc1c(-c2ccccc2)oc2c(C(=O)OCCN3CCCCC3)cccc2c1=O
CC(C)C[C@@H](C(=O)N[C@H](C(=O)OC1CCCC1)c1ccccc1)[C@H](O)C(=O)NO
COc1ccccc1-c1cccc(-c2c(O)c3cc(C#N)c(Cl)cc3[nH]c2=O)c1
COc1ccc(C(=O)N2CCC(C(=O)Nc3ccccc3Cl)CC2)cc1
N#Cc1ccc(COC[C@H]2O[C@@H](n3c(NCc4ccc(Cl)c(Cl)c4)nc4c(N)ncnc43)[C@@H](O)[C@@H]2O)cc1
CCc1ccc(NS(=O)(=O)c2ccc3[nH]c4c(c3c2)CCCCCC4)cc1
Cc1ccc(C)c(N2CCN(CCCNc3ncnc4onc(-c5ccc(Cl)cc5)c34)CC2)c1
COc1ccc(N2CCN(C(=O)C3CCCN(S(=O)(=O)c4ccc5c(c4)oc(=O)n5C)C3)CC2)cc1 (configuration not stated)

Potency, inconclusive:
CCc1ccc(NC(=O)c2cc3c([nH]c2=O)CC(C)(C)CC3=O)cc1 28.2 µM [activator, single point]
COc1ccc(-c2noc(-c3cccc(OC)c3OC)n2)cc1 1.78 µM [activator, full curve]
COc1cccc(CNC(=O)c2cc(-c3cccc(OC)c3)n[nH]2)c1 15.8 µM [activator, partial curve, poor fit]
CCc1ccc(NC(=O)c2cc3sc(Cl)cc3n2C)cc1 15.8 µM [activator, partial curve, poor fit]
CCOc1cc2sc(N3CCC(C(=O)Nc4ccc(C(C)C)cc4)CC3)nc2cc1Br 1.26 µM [activator, full curve]
Cc1cccc(CNC(=O)Cc2csc3ccccc23)c1 10 µM [activator, partial curve]
CN1CC(=O)N/C1=N/C(=O)Nc1cccc(Cl)c1 35.5 µM [activator, partial curve, poor fit]
Cc1cccc(CCNC(=O)c2ccc3c(c2)nc2n3CCOC2)c1 1.58 µM [activator, full curve, poor fit]
COc1ccc(NC(=O)CC2C(=O)N(c3ccc(OC)cc3)C(=O)N2C2CCCCC2)cc1 (configuration not stated) 14.1 µM [activator, partial curve, poor fit]
COc1cccc(CNC(=O)c2ccc3c(c2)nc2n3CCCCC2)c1OC 5.62 µM [activator, partial curve, poor fit]
N#Cc1ccc(OC(=O)c2cc(-c3ccc4c(c3)OCCO4)on2)cc1 20 µM [activator, single point]
O=C(O)c1ccc2nc(-c3cc4cc(F)ccc4oc3=O)[nH]c2c1 1 µM [activator, partial curve, poor fit]
CC1CCCN(c2csc3ccccc3c2=O)C1 (configuration not stated) 7.94 µM [activator, partial curve]
Cc1ccc(-n2ncc3c(NCCc4ccccc4)ncnc32)cc1C 3.55 µM [activator, full curve]
Cc1ccccc1CN1CCc2nc(Nc3ccc4c(c3)OCCO4)ncc2C1 4.47 µM [activator, single point]
CCn1nnc2cc(C(=O)Nc3cccc(Cl)c3)ccc21 7.08 µM [activator, partial curve]
O=C(COC(=O)c1cc(-c2cccs2)nc2ccccc12)c1ccccc1 39.8 µM [activator, single point]
CC1CCN(c2ncnc3c2cnn3-c2ccc(F)cc2)CC1 1 µM [activator, partial curve, poor fit]
Cc1ccc(CSc2nc3cccnc3n2Cc2ccc(C(=O)NCCc3cccs3)cc2)cc1 2 µM [activator, partial curve, poor fit]
Cc1ccc(OCC(=O)Nc2ccc(-c3nc4ccccc4o3)cc2)c(C)c1 1.78 µM [activator, full curve, poor fit]
CCC(C)c1ccc(OCC(=O)Nc2ccc(-c3nc4ncccc4o3)cc2)cc1 (configuration not stated) 7.94 µM [activator, partial curve, poor fit]
Cc1cc(C)c2c(N)c(C(=O)Nc3ccccc3C(F)(F)F)sc2n1 39.8 µM [activator, single point]
CCOc1ccc(NC(=O)c2oc3ccccc3c2NC(=O)c2cc3ccccc3o2)cc1 28.2 µM [activator, partial curve, poor fit]
CCOC(=O)C1CCN(C(=O)c2cc3ccc4ccc(C)[nH]c4c3n2)CC1 10 µM [activator, partial curve]
COc1ccc(C(=O)COC(=O)CCCC(=O)Nc2ccc(C(C)=O)cc2)cc1 39.8 µM [activator, single point]
Cc1ccccc1CNC(=O)Cc1csc2ccccc12 12.6 µM [activator, partial curve]
COc1cccc(NC2=CC(c3ccc(C(C)C)cc3)N(c3cccc(OC)c3)C2=O)c1 (configuration not stated) 12.6 µM [activator, partial curve]
Cc1c(Cl)cccc1-n1nnc(-c2nc(-c3ccc4c(c3)OCO4)no2)c1C 1.58 µM [activator, partial curve, poor fit]
CC(=O)Nc1ccc(NC(=O)c2ncoc2-c2ccco2)cc1 5.01 µM [activator, full curve]
COc1ccc2c(c1)NC(c1ccc(F)cc1)=NC(c1ccc(F)cc1)=N2 28.2 µM [activator, single point]
Cc1ccc(NC(=O)c2ccc(-c3ccccc3)s2)cc1 39.8 µM [activator, single point]
O=C(NCCc1ccccc1Cl)c1cc2ccccn2n1 2.51 µM [activator, full curve]
CCOc1ccc2c(c1)NC(c1ccc(OCC)c(OCC)c1)=NC(c1ccc(F)cc1)=N2 6.31 µM [activator, full curve, poor fit]
CC(C)CC(=O)n1nc(-c2ccco2)nc1NCc1ccc(Cl)cc1 1.78 µM [activator, full curve, poor fit]
COc1cc(C[C@@H](CO)[C@H](CO)Cc2ccc(O)c(OC)c2)ccc1O 4.85 µM [activator, full curve]
CCOc1cccc(C(=O)Nc2cc(-c3ccc(C)cc3)no2)c1 1.78 µM [activator, full curve]
CCC(C)NC(=O)c1cccc(NC(=O)c2nsc3ccccc23)c1 (configuration not stated) 1 µM [activator, partial curve, poor fit]
CCOC(=O)c1ccc(NC2SC(=O)N(Cc3cccc(C(=O)O)c3)C2=O)cc1 (configuration not stated) 10 µM [activator, partial curve]
Cc1ccc(O)c(NC(=O)c2cc(-c3ccccc3O)no2)c1 17.8 µM [activator, partial curve, poor fit]
Oc1ccc(/C=C/c2cc(O)cc(O)c2)cc1 17.8 µM [activator, partial curve]

Activity change, positive = activation, inconclusive:
Cc1cc(C)cc(-n2c(SCC(=O)NCC3CCCO3)nc3c([nH]c4ccccc43)c2=O)c1 (configuration not stated) 33.1% [activator]
CCOc1cc(C(=O)NCCc2csc3nc(-c4ccccc4F)nn23)cc(OCC)c1OCC -79.1% [activator]
COc1ccc(NCc2cc3cc4c(cc3n(CC(=O)Nc3ccc(F)cc3)c2=O)OCCO4)cc1 17.3% [activator]
CCOC(=O)c1c(NC(=O)COc2c(C)cc(Cl)cc2Cl)sc2c1CCCC2 -39.2% [activator]
CC(NC(=O)C1CCN(c2nc3ccccc3nc2C(F)(F)F)CC1)c1ccccc1 (configuration not stated) -20.1% [activator]
